The EC50 is the concentration needed to bring the measured effect to its halfway point. Low readings indicate a more potent agent, high ones a less potent agent.

Values joined by “and” are separate entries in the source; they are usually repeats but may differ in a detail not shown here. Identical values can stand only once.

In test [1] the target is T1, human 4-1BB (CD137) on cells (human, UniProt Q07011 24-255). Briefly: cell-based or functional assay.
Test [2] has as its target T1, human 4-1BB (CD137) on cells. Briefly: flow cytometry on activated human PBMCs (anti-CD3/anti-CD28 beads, 48 h), gated on CD4 T cells. On the technique in general: In flow cytometry, cells or beads pass a laser one at a time.
A further test has as its target T2, human CD19 on cells (human, UniProt P15391 20-556).
T2 construct: also called CD19-expressing tumor cells WSU-DLCL2; OCI-Ly18
T2 sequence: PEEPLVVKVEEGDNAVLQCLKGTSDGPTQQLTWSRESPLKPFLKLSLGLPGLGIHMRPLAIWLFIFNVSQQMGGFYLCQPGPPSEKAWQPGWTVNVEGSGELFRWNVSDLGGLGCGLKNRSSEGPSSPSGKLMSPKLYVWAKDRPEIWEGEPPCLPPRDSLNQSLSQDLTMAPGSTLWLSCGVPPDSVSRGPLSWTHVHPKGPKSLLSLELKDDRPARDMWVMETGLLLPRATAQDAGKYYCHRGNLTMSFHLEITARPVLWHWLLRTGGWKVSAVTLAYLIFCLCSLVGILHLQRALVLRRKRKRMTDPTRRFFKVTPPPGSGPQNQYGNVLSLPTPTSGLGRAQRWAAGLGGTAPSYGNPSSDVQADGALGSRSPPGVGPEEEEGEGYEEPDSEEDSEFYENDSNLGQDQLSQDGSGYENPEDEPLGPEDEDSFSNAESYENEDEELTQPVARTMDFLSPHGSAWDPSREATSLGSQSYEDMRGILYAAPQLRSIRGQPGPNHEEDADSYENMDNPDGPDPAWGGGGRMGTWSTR
Briefly: flow cytometry on CD19+ WSU-DLCL2 cells, PE anti-human IgG detection.

The target in test [3] is T1, human 4-1BB (CD137) on cells. The test can be described thus: flow cytometry on activated human PBMCs (anti-CD3/anti-CD28 beads, 48 h), gated on CD8 T cells.

B1: monovalent CD19(8B8-018) targeted split trimeric 4-1BB ligand (71-248) Fc (kih) fusion antigen binding molecule with crossed CH-CL and charged residues … (Fc fusion)
chain 1: REGPELSPDDPAGLLDLRQGMFAQLVAQNVLLIDGPLSWYSDPGLAGVSLTGGLSYKEDTKELVVAKAGVYYVFFQLELRRVVAGEGSGSVSLALHLQPLRSAAGAAALALTVDLPPASSEARNSAFGFQGRLLHLSAGQRLGVHLHTEARARHAWQLTQGATVLGLFRVTPEIPAGLGGGGSGGGGSREGPELSPDDPAGLLDLRQGMFAQLVAQNVLLIDGPLSWYSDPGLAGVSLTGGLSYKEDTKELVVAKAGVYYVFFQLELRRVVAGEGSGSVSLALHLQPLRSAAGAAALALTVDLPPASSEARNSAFGFQGRLLHLSAGQRLGVHLHTEARARHAWQLTQGATVLGLFRVTPEIPAGLGGGGSGGGGSRTVAAPSVFIFPPSDRKLKSGTASVVCLLNNFYPREAKVQWKVDNALQSGNSQESVTEQDSKDSTYSLSSTLTLSKADYEKHKVYACEVTHQGLSSPVTKSFNRGE[human IgG1 Fc with changes omitted here]
chain 2: REGPELSPDDPAGLLDLRQGMFAQLVAQNVLLIDGPLSWYSDPGLAGVSLTGGLSYKEDTKELVVAKAGVYYVFFQLELRRVVAGEGSGSVSLALHLQPLRSAAGAAALALTVDLPPASSEARNSAFGFQGRLLHLSAGQRLGVHLHTEARARHAWQLTQGATVLGLFRVTPEIPAGLGGGGSGGGGSASTKGPSVFPLAPSSKSTSGGTAALGCLVEDYFPEPVTVSWNSGALTSGVHTFPAVLQSSGLYSLSSVVTVPSSSLGTQTYICNVNHKPSNTKVDEKVEPKSC
heavy: QVQLVQSGAEVKKPGASVKVSCKASGYTFTDYIMHWVRQAPGQGLEWMGYINPYNDGSKYTEKFQGRVTMTSDTSISTAYMELSRLRSDDTAVYYCARGTYYYGSALFDYWGQGTTVTVSSASTKGPSVFPLAPSSKSTSGGTAALGCLVKDYFPEPVTVSWNSGALTSGVHTFPAVLQSSGLYSLSSVVTVPSSSLGTQTYICNVNHKPSNTKVDKKVEPKSCDKTHTCPPCPAPEAAGGPSVFLFPPKPKDTLMISRTPEVTCVVVDVSHEDPEVKFNWYVDGVEVHNAKTKPREEQYNSTYRVVSVLTVLHQDWLNGKEYKCKVSNKALGAPIEKTISKAKGQPREPQVCTLPPSRDELTKNQVSLSCAVKGFYPSDIAVEWESNGQPENNYKTTPPVLDSDGSFFLVSKLTVDKSRWQQGNVFSCSVMHEALHNHYTQKSLSLSPGK
light: DIVMTQTPLSLSVTPGQPASISCKSSQSLENPNGNTYLNWYLQKPGQSPQLLIYRVSKRFSGVPDRFSGSGSGTDFTLKISRVEAEDVGVYYCLQLTHVPYTFGQGTKLEIKRTVAAPSVFIFPPSDEQLKSGTASVVCLLNNFYPREAKVQWKVDNALQSGNSQESVTEQDSKDSTYSLSSTLTLSKADYEKHKVYACEVTHQGLSSPVTKSFNRGEC
Consider B1, for which, in test [1], the “Nalm6 EC50 [nM] (NFkB luciferase reporter assay with 4-1BB HeLa cells and CD19-expressing cells)” value (shortened to “Nalm6 EC50 [nM]”) was 0.03 nM; the “OCI-Ly18 EC50 [nM] (NFkB luciferase reporter assay with 4-1BB HeLa cells and CD19-expressing cells)” value (shortened to “OCI-Ly18 EC50 [nM]”) was 0.03 nM; the “SU-DHL-8 EC50 [nM] (NFkB luciferase reporter assay with 4-1BB HeLa cells and CD19-expressing cells)” value (from here on “SU-DHL-8 EC50 [nM]”) was 0.03 nM.

B2: monovalent CD19-targeted 4-1BB ligand (71-254) trimer-containing Fc (kih) fusion antigen binding molecule (Construct 4.1) (Fc fusion)
chain 1: [about 200 residues omitted here]GGGGSGGGGSREGPELSPDDPAGLLDLRQGMFAQLVAQNVLLIDGPLSWYSDPGLAGVSLTGGLSYKEDTKELVVAKAGVYYVFFQLELRRVVAGEGSGSVSLALHLQPLRSAAGAAALALTVDLPPASSEARNSAFGFQGRLLHLSAGQRLGVHLHTEARARHAWQLTQGATVLGLFRVTPEIPAGLPSPRSEGGGGSGGGGSRTVAAPSVFIFPPSDRKLKSGTASVVCLLNNFYPREAKVQWKVDNALQSGNSQESVTEQDSKDSTYSLSSTLTLSKADYEKHKVYACEVTHQGLSSPVTKSFNRGE[human IgG1 Fc with changes omitted here]
chain 2: [about 200 residues omitted here][about 120 residues omitted here]
heavy: QVQLVQSGAEVKKPGASVKVSCKASGYTFTDYIMHWVRQAPGQGLEWMGYINPYNDGSKYTEKFQGRVTMTSDTSISTAYMELSRLRSDDTAVYYCARGTYYYGPQLFDYWGQGTTVTVSSASTKGPSVFPLAPSSKSTSGGTAALGCLVKDYFPEPVTVSWNSGALTSGVHTFPAVLQSSGLYSLSSVVTVPSSSLGTQTYICNVNHKPSNTKVDKKVEPKSCDKTHTCPPCPAPEAAGGPSVFLFPPKPKDTLMISRTPEVTCVVVDVSHEDPEVKFNWYVDGVEVHNAKTKPREEQYNSTYRVVSVLTVLHQDWLNGKEYKCKVSNKALGAPIEKTISKAKGQPREPQVCTLPPSRDELTKNQVSLSCAVKGFYPSDIAVEWESNGQPENNYKTTPPVLDSDGSFFLVSKLTVDKSRWQQGNVFSCSVMHEALHNHYTQKSLSLSPGK
light: DIVMTQTPLSLSVTPGQPASISCKSSQSLETSTGTTYLNWYLQKPGQSPQLLIYRVSKRFSGVPDRFSGSGSGTDFTLKISRVEAEDVGVYYCLQLLEDPYTFGQGTKLEIKRTVAAPSVFIFPPSDEQLKSGTASVVCLLNNFYPREAKVQWKVDNALQSGNSQESVTEQDSKDSTYSLSSTLTLSKADYEKHKVYACEVTHQGLSSPVTKSFNRGEC
notes: also called positive control construct 4.1
On to B2, for which, in test [2], the EC50 is 0.11 nM and 0.02 µg/mL. In addition, the EC50 with human CD19 on cells was 0.17 nM and 0.03 µg/mL. Also, in test [1], the “Nalm6 EC50 [nM]” value worked out at 0.02 nM; the “OCI-Ly18 EC50 [nM]” value turned out to be 0.03 nM; the “SU-DHL-8 EC50 [nM]” value is 0.03 nM. Also, the concentration giving a half-maximal response (EC50) in test [3] was 0.05 µg/mL and 0.28 nM.

B3: monovalent CD19(8B8-018)-targeted 4-1BB ligand (71-248) trimer-containing Fc (kih) fusion antigen binding molecule (Construct 3.11) (Fc fusion)
chain: DKTHTCPPCPAPEAAGGPSVFLFPPKPKDTLMISRTPEVTCVVVDVSHEDPEVKFNWYVDGVEVHNAKTKPREEQYNSTYRVVSVLTVLHQDWLNGKEYKCKVSNKALGAPIEKTISKAKGQPREPQVCTLPPSRDELTKNQVSLSCAVKGFYPSDIAVEWESNGQPENNYKTTPPVLDSDGSFFLVSKLTVDKSRWQQGNVFSCSVMHEALHNHYTQKSLSLSPGGGGGSGGGGSREGPELSPDDPAGLLDLRQGMFAQLVAQNVLLIDGPLSWYSDPGLAGVSLTGGLSYKEDTKELVVAKAGVYYVFFQLELRRVVAGEGSGSVSLALHLQPLRSAAGAAALALTVDLPPASSEARNSAFGFQGRLLHLSAGQRLGVHLHTEARARHAWQLTQGATVLGLFRVTPEIPAGLGGGGSGGGGSREGPELSPDDPAGLLDLRQGMFAQLVAQNVLLIDGPLSWYSDPGLAGVSLTGGLSYKEDTKELVVAKAGVYYVFFQLELRRVVAGEGSGSVSLALHLQPLRSAAGAAALALTVDLPPASSEARNSAFGFQGRLLHLSAGQRLGVHLHTEARARHAWQLTQGATVLGLFRVTPEIPAGL
heavy: QVQLVQSGAEVKKPGASVKVSCKASGYTFTDYIMHWVRQAPGQGLEWMGYINPYNDGSKYTEKFQGRVTMTSDTSISTAYMELSRLRSDDTAVYYCARGTYYYGSALFDYWGQGTTVTVSSASTKGPSVFPLAPSSKSTSGGTAALGCLVKDYFPEPVTVSWNSGALTSGVHTFPAVLQSSGLYSLSSVVTVPSSSLGTQTYICNVNHKPSNTKVDKKV[human IgG1 Fc with changes omitted here]GGGGSGGGGSREGPELSPDDPAGLLDLRQGMFAQLVAQNVLLIDGPLSWYSDPGLAGVSLTGGLSYKEDTKELVVAKAGVYYVFFQLELRRVVAGEGSGSVSLALHLQPLRSAAGAAALALTVDLPPASSEARNSAFGFQGRLLHLSAGQRLGVHLHTEARARHAWQLTQGATVLGLFRVTPEIPAGL
light: DIVMTQTPLSLSVTPGQPASISCKSSQSLENPNGNTYLNWYLQKPGQSPQLLIYRVSKRFSGVPDRFSGSGSGTDFTLKISRVEAEDVGVYYCLQLTHVPYTFGQGTKLEIKRTVAAPSVFIFPPSDEQLKSGTASVVCLLNNFYPREAKVQWKVDNALQSGNSQESVTEQDSKDSTYSLSSTLTLSKADYEKHKVYACEVTHQGLSSPVTKSFNRGEC
notes: Human IgG1 Fc knob-into-hole with P329G, L234A, L235A; one CD19(8B8-018) Fab on the knob chain
On to B3, for which the EC50 in test [2] was 0.13 nM and 0.02 µg/mL. Besides, in the test with human CD19 on cells, the EC50 is 0.38 nM and 0.06 µg/mL. Further, in test [1], the “Nalm6 EC50 [nM]” value was 0.03 nM; the “OCI-Ly18 EC50 [nM]” value was 0.03 nM; the “SU-DHL-8 EC50 [nM]” value came out at 0.03 nM. Further, the 50% effective concentration (EC50) in test [3] is 0.06 µg/mL and 0.38 nM.
